This is one part of the list. These are further read-outs of the screen, such as a control signal, another cell line or another target. No call is given for them. Most of these compounds were active or inconclusive in the main read-out, so they are no random draw. Potencies come from curve fits of mixed quality, noted in brackets.
Experiment: Cell-based coincidence reporter assay to measure PMP22 gene transcription in S16 Pmp22-F2sN cells - Confirmatory screen (AID 1508646)
Conditions: S16 Schwann cells Pmp22-F2sN, dual luciferase, 24 h; measured here: FLuc reporter channel
Procedure, shortened: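 Coincidence reporter read as sequential FLuc then NLuc luminescence (Nano-Glo Dual-Luciferase, 10 min each). Engineered S16 Pmp22-F2sN Schwann cells, 500-1,000 per well in DMEM/10% FBS, were exposed to compounds for 24 h, 37C.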
For `O=C(NCc1ccccc1)c1cccc(Nc2nc3ccccc3n3nnnc23)c1`, the AC50 was 13.7 µM [falling, full curve].
In the case of `Cc1[nH]c2ccccc2c1C1(O)C(=O)N(Cc2ccccc2)c2ccc(Br)cc21` (stereo not given), the AC50 is reported as 21.7 µM [falling, partial curve, poor fit].
With `Clc1ccc(-c2noc3ncnc(N4CCCCC4)c23)cc1` the AC50 was 19.3 µM [falling, partial curve].
In the case of `COC(=O)c1ccccc1NC(=O)CCS(=O)(=O)c1nc(-c2ccc3c(c2)OCO3)cc(C(F)(F)F)n1`, the AC50 is reported as 19.3 µM [falling, partial curve].
With `CCOC(=O)c1cc2c(=O)n3ccccc3nc2n(CC2CCCO2)c1=NC(=O)c1cccc(C(F)(F)F)c1` (stereo not given) the AC50 was 1.09 µM [falling, partial curve, poor fit].
With `CCS(=O)(=O)c1ncc(Cl)c(C(=O)NCc2ccccc2)n1` the AC50 was 6.11 µM [falling, full curve].
With `Cc1cccc(-c2c3c(=O)n(C)c(=O)n(C)c3c3c(C)nc4ccccc4n23)c1` the AC50 was 17.2 µM [falling, partial curve].
With `O=C(Nc1ccccc1C(F)(F)F)N1CCN(c2ccc3nnc(-c4ccc(F)cc4)n3n2)CC1` the AC50 was 5.44 µM [falling, full curve, poor fit].
With `COc1ccc(C)cc1NC(=O)c1nnn(CC(=O)Nc2c(C)cccc2C)c1N` the AC50 was 24.3 µM [falling, single point].
In the case of `CCN(Cc1ccccc1)C(=O)c1nn(-c2ccc(OC)cc2)c(=O)c2c1c1ccccc1n2C`, the AC50 is reported as 17.2 µM [falling, partial curve, poor fit].
In the case of `COc1cc(OC)c(OC)cc1CN1CCc2nc(N3CCN(c4ccccc4F)CC3)ncc2C1`, the AC50 is reported as 27.3 µM [falling, partial curve, poor fit].
For `CCc1ccc(Nc2nc3c(S(=O)(=O)c4ccc(C)cc4)nnn3c3ccsc23)cc1`, the AC50 was 43.2 µM [falling, single point].
For `CCOC(=O)c1cc2c(=O)n3ccccc3nc2n(Cc2ccco2)c1=NC(=O)c1cc(C)cc(C)c1`, the AC50 was 4.32 µM [falling, full curve].
With `O=C(Nc1ccc(Cl)cc1)c1cnn2c1NC(c1ccccc1)=CC2c1ccccc1` (stereo not given) the AC50 was 38.5 µM [falling, single point].
In the case of `CC(C)CCNC(=O)CSc1c2c(nc3ccc(Cl)cc13)CCCC2`, the AC50 is reported as 21.7 µM [falling, partial curve].
For `COc1ccc(-c2nnc(SCC(=O)NCc3ccccc3)nc2-c2ccc(OC)c(OC)c2)cc1OC`, the AC50 was 6.11 µM [falling, partial curve, poor fit].
In the case of `O=C(Cn1ncc2c([nH]c3ccccc32)c1=O)Nc1cccc(C(F)(F)F)c1`, the AC50 is reported as 24.3 µM [falling, partial curve, poor fit].
In the case of `O=C(NCCC1=CCCCC1)c1ccc2c(c1)N(Cc1ccccc1)C(=O)c1ccccc1S2=O` (stereo not given), the AC50 is reported as 15.3 µM [falling, partial curve].
In the case of `O=C1COc2ccc(-c3cc(-c4ccc(F)cc4)c4c(n3)-c3ccccc3OC4)cc2N1`, the AC50 is reported as 24.3 µM [falling, partial curve, poor fit].
With `Cc1ccc(S(=O)(=O)Nc2cc3c(cc2N2CCOCC2)n(C)c(=O)n3C)c(C)c1` the AC50 was 19.3 µM [falling, partial curve].
In the case of `COc1ccc(Cl)cc1NC(=O)CSc1nc2ccccc2nc1N1CCCCC1`, the AC50 is reported as 12.2 µM [falling, full curve, poor fit].
With `CC(=O)c1ccc(NC(=O)CSC2=Nc3ccccc3N=C(c3ccc(F)cc3)C2)cc1` the AC50 was 17.2 µM [falling, partial curve, poor fit].
For `CCC(=O)N1CCc2cc(Br)cc(S(=O)(=O)N3CCCC(C(=O)NCc4cccc(OC)c4)C3)c21` (stereo not given), the AC50 was 24.3 µM [falling, partial curve, poor fit].
For `COc1ccc(-c2cc(C(F)(F)F)nc(S(C)(=O)=O)n2)cc1`, the AC50 was 13.7 µM [falling, partial curve].
For `CC(=O)N1c2ccc(S(=O)(=O)NCC3CCC(C(=O)Nc4cc(C)ccc4C)CC3)cc2CC1C` (stereo not given), the AC50 was 24.3 µM [falling, partial curve, poor fit].
With `COc1ccc(NC(=O)c2ccc3c(=O)n4nc(Nc5ccccc5C)sc4nc3c2)cc1Cl` the AC50 was 15.3 µM [falling, partial curve].
With `Cc1cccc(C(=O)Nc2cccc(C(=O)OCc3cc(=O)n4nc(C(C)C)sc4n3)c2)c1` the AC50 was 0.769 µM [rising, full curve, poor fit].

Same assay, conditions: S16 Schwann cells Pmp22-F2sN, dual luciferase, 24 h; measured here: NLuc reporter channel
For `O=C(NCc1ccccc1)c1cccc(Nc2nc3ccccc3n3nnnc23)c1`, the AC50 was 13.7 µM [falling, full curve].
In the case of `Cc1[nH]c2ccccc2c1C1(O)C(=O)N(Cc2ccccc2)c2ccc(Br)cc21` (stereo not given), the AC50 is reported as 30.6 µM [falling, partial curve].
For `COC(=O)c1ccccc1NC(=O)CCS(=O)(=O)c1nc(-c2ccc3c(c2)OCO3)cc(C(F)(F)F)n1`, the AC50 was 19.3 µM [falling, partial curve].
In the case of `CCS(=O)(=O)c1ncc(Cl)c(C(=O)NCc2ccccc2)n1`, the AC50 is reported as 7.69 µM [falling, full curve].
In the case of `Cc1cccc(NC(=O)c2sc3nc4c(cc3c2N)CCCCCC4)c1C`, the AC50 is reported as 9.68 µM [falling, partial curve, poor fit].
In the case of `O=C(Nc1ccccc1C(F)(F)F)N1CCN(c2ccc3nnc(-c4ccc(F)cc4)n3n2)CC1`, the AC50 is reported as 6.11 µM [falling, full curve, poor fit].
In the case of `CCc1ccccc1NC(=O)c1ccc2nc(C(C)C)oc2c1`, the AC50 is reported as 7.69 µM [falling, partial curve, poor fit].
In the case of `COc1ccc(C)cc1NC(=O)c1nnn(CC(=O)Nc2c(C)cccc2C)c1N`, the AC50 is reported as 1.22 µM [rising, full curve, poor fit].
With `COc1cc(OC)c(OC)cc1CN1CCc2nc(N3CCN(c4ccccc4F)CC3)ncc2C1` the AC50 was 43.2 µM [falling, single point].
For `COc1ccc(CN2CCN(Cc3cc(=O)oc4cc(C)ccc34)CC2)c(OC)c1OC`, the AC50 was 17.2 µM [falling, partial curve, poor fit].
For `CCOC(=O)c1cc2c(=O)n3ccccc3nc2n(Cc2ccco2)c1=NC(=O)c1cc(C)cc(C)c1`, the AC50 was 4.85 µM [falling, full curve].
In the case of `COc1ccc(OC)c(CCNc2ncnc3onc(C)c23)c1`, the AC50 is reported as 24.3 µM [falling, partial curve, poor fit].
In the case of `O=C(Nc1ccc(Cl)cc1)c1cnn2c1NC(c1ccccc1)=CC2c1ccccc1` (stereo not given), the AC50 is reported as 48.5 µM [falling, single point].
For `CC(C)CCNC(=O)CSc1c2c(nc3ccc(Cl)cc13)CCCC2`, the AC50 was 19.3 µM [falling, partial curve].
For `CCCc1oc2ccc(NS(=O)(=O)c3ccc(OC)cc3)cc2c1C(=O)OCC`, the AC50 was 17.2 µM [falling, partial curve, poor fit].
With `COc1ccc(-c2nnc(SCC(=O)NCc3ccccc3)nc2-c2ccc(OC)c(OC)c2)cc1OC` the AC50 was 8.62 µM [falling, full curve, poor fit].
In the case of `COc1ccc(NC(=O)CCNS(=O)(=O)c2ccc3c(c2)CCN3C(=O)C2CC2)cc1Cl`, the AC50 is reported as 21.7 µM [falling, partial curve, poor fit].
With `O=C1COc2ccc(-c3cc(-c4ccc(F)cc4)c4c(n3)-c3ccccc3OC4)cc2N1` the AC50 was 30.6 µM [falling, partial curve, poor fit].
In the case of `CC(=O)c1ccc(NC(=O)CSC2=Nc3ccccc3N=C(c3ccc(F)cc3)C2)cc1`, the AC50 is reported as 13.7 µM [falling, partial curve].
For `CCC1=Nc2cc(C(=O)NCCN(CC)CC)ccc2Sc2ccccc21`, the AC50 was 24.3 µM [falling, partial curve].
For `COc1ccc(-c2cc(C(F)(F)F)nc(S(C)(=O)=O)n2)cc1`, the AC50 was 19.3 µM [falling, partial curve].
For `Cc1ccc(Nc2cc(C(=O)NC3CCCC3)c3ccccc3n2)cc1C`, the AC50 was 21.7 µM [falling, partial curve].
For `Cc1ccccc1OCC(=O)Nc1ccccc1C(=O)OCc1cc(=O)n2nc(C3CC3)sc2n1`, the AC50 was 24.3 µM [falling, partial curve, poor fit].
In the case of `COc1ccc(NC(=O)c2ccc3c(=O)n4nc(Nc5ccccc5C)sc4nc3c2)cc1Cl`, the AC50 is reported as 15.3 µM [falling, partial curve].
With `COc1ccc(Nc2cc(C)nc3c(C)c(C)ccc23)cc1` the AC50 was 30.6 µM [falling, single point].
With `O=C(NCc1ccccc1Cl)C1CCN(S(=O)(=O)c2ccc3c(c2)CCCN3C(=O)C2CCC2)CC1` the AC50 was 38.5 µM [rising, single point].
With `COCCNc1nc2c(c(=O)n(C)c(=O)n2C)n1Cc1c(F)cccc1Cl` the AC50 was 19.3 µM [falling, partial curve].
With `O=C(NCCc1ccccc1Cl)C1CCN(c2nc3ccccc3nc2C(F)(F)F)CC1` the AC50 was 43.2 µM [falling, single point].
Tags tell the direction and shape of the fitted curve.
